One assay deals with T1, GST-NKX2.1-C (UniProt P43699).
T1 sequence: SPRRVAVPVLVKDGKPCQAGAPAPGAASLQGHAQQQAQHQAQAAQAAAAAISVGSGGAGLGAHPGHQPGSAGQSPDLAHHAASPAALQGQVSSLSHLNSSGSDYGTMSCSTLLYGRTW
The assay can be described thus: pull-down; GST-NKX2.1 fusion proteins (full-length and domains) on glutathione-sepharose; in vitro translated FOXO1; binding buffer; blot with anti-FOXO1; only the target purified.

Sequences of proteins named here, by UniProt entry; tags and fusion partners are left off.
UniProt G3V7R4: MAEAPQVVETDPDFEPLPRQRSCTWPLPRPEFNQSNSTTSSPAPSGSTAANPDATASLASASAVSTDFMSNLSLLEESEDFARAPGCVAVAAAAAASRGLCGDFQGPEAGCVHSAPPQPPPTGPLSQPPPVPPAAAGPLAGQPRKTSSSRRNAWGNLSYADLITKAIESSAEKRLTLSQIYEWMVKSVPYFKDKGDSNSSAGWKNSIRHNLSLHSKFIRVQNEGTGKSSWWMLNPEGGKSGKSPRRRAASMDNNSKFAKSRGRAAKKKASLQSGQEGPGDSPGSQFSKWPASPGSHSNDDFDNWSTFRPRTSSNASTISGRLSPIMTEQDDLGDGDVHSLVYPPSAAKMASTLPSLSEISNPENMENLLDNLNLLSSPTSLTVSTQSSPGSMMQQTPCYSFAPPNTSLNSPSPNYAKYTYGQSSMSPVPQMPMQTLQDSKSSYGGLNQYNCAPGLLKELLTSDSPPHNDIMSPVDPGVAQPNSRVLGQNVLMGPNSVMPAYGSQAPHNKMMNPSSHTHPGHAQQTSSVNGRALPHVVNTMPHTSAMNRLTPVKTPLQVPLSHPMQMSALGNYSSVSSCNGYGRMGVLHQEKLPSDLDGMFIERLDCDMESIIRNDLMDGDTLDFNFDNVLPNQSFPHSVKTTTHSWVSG

The target in a further assay is T2, GST-NKX2.1-HD (UniProt P43699).
T2 sequence: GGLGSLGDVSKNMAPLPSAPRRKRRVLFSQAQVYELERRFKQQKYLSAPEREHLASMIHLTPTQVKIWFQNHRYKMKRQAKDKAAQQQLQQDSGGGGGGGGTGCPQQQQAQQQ
The assay is described as above.

The target of assay [1] is T3, endogenous NKX2.1 of primary rat alveolar epithelial cells (rat (endogenous in primary rat AEC)) (UniProt P23441).
T3 sequence: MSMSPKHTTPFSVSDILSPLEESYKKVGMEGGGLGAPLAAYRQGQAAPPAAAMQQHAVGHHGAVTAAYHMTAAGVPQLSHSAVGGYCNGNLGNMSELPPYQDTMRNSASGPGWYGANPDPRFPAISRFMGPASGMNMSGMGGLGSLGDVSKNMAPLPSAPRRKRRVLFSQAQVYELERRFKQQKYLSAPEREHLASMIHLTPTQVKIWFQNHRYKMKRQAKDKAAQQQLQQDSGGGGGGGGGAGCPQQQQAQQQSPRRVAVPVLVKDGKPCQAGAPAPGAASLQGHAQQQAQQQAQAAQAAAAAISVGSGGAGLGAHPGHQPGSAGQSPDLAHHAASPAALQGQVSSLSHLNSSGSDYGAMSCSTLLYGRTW
The experiment in a line: co-IP; nuclear extracts (200 ug) of primary rat AEC on day 3 in culture; anti-NKX2.1 monoclonal or rabbit polyclonal anti-FOXO1 antibody or IgG control, overnight at 4 C in IP Low Wash Buffer, Protein A/G beads; blot for FOXO1 or NKX2.1.

The target of the next assay is GST-FOXO1-C (human) (UniProt Q12778). The experiment in a line: pull-down; GST-FOXO1 fusion proteins (full-length and domains) or GST on glutathione-sepharose; in vitro translated NKX2.1; 50 mM Tris-HCl, 120 mM NaCl, 2 mM EDTA, 0.1% NP-40, 1 h at RT; blot with anti-NKX2.1; only the target purified.
Assay [2] addresses GST-FOXO1 full-length (FL) (UniProt Q12778). The assay is described as above.
For the next assay, the target named is GST-FOXO1-FK (UniProt Q12778). The assay is described as above.
For another assay, the target named is GST-FOXO1-M (UniProt Q12778). Described as above.
A further assay deals with GST-FOXO1-N + FK (UniProt Q12778). The assay is described as above.
For another assay, the target named is T4, GST-FOXO1-N (UniProt Q12778).
T4 sequence: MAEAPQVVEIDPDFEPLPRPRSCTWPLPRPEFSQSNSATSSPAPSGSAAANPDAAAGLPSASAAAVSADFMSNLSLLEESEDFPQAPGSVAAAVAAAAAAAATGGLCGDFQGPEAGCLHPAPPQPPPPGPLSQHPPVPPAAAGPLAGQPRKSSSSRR
Described as above.

Consider three molecules from article PMC8997990.

Results are given in words; binding and its absence hold for the method and conditions named. Binding seen in cells or lysates may run through a third protein. Some entries that bind do so weakly or less than the wild type. For part of these data: Tags and fused reporters may be left off the sequences shown.

For the molecule “in vitro translated full-length FOXO1 (from UniProt Q12778 1-655)”, the figures for the binding entry with GST-NKX2.1-C and in the assay with GST-NKX2.1-HD were “no binding” and “binds”, respectively.
With “endogenous FOXO1 of primary rat alveolar epithelial cells (from UniProt G3V7R4 1-649)”, the binding result in assay [1] is reported as “binds”.

B1: in vitro translated full-length NKX2.1 (protein, UniProt P43699 1-371)
chain: MSMSPKHTTPFSVSDILSPLEESYKKVGMEGGGLGAPLAAYRQGQAAPPTAAMQQHAVGHHGAVTAAYHMTAAGVPQLSHSAVGGYCNGNLGNMSELPPYQDTMRNSASGPGWYGANPDPRFPAISRFMGPASGMNMSGMGGLGSLGDVSKNMAPLPSAPRRKRRVLFSQAQVYELERRFKQQKYLSAPEREHLASMIHLTPTQVKIWFQNHRYKMKRQAKDKAAQQQLQQDSGGGGGGGGTGCPQQQQAQQQSPRRVAVPVLVKDGKPCQAGAPAPGAASLQGHAQQQAQHQAQAAQAAAAAISVGSGGAGLGAHPGHQPGSAGQSPDLAHHAASPAALQGQVSSLSHLNSSGSDYGTMSCSTLLYGRTW
B1: the binding entry is “no binding” with GST-FOXO1-C (human); “binds” in [2]; “binds” with GST-FOXO1-FK; “no binding” with GST-FOXO1-M; “binds” with GST-FOXO1-N + FK; “no binding” in the assay with GST-FOXO1-N.
